# Laboratory results as given in paper PMC6919601, “Identification of Plasmodium dipeptidyl aminopeptidase allosteric inhibitors by high throughput screening” (PLoS ONE, 2019).
# The whole screen tested about 110,000 compounds, of which about 230 (0.21%) showed an effect of 50% or more. The list shows a part of the results.
# Target: DPAP1 (Plasmodium falciparum, UniProt Q8IIJ9)
# Assay: primary screen, percent inhibition; read by cleavage of a fluorogenic dipeptide substrate; higher = more effect of the substance
# Parameters: species or system P. falciparum D10 trophozoite lysates; single well
# 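Further: 30 min substrate incubation versus DMSO and 10 µM JCP410 controls.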
# Chain of DPAP1 (Q8IIJ9 whole entry, looked up): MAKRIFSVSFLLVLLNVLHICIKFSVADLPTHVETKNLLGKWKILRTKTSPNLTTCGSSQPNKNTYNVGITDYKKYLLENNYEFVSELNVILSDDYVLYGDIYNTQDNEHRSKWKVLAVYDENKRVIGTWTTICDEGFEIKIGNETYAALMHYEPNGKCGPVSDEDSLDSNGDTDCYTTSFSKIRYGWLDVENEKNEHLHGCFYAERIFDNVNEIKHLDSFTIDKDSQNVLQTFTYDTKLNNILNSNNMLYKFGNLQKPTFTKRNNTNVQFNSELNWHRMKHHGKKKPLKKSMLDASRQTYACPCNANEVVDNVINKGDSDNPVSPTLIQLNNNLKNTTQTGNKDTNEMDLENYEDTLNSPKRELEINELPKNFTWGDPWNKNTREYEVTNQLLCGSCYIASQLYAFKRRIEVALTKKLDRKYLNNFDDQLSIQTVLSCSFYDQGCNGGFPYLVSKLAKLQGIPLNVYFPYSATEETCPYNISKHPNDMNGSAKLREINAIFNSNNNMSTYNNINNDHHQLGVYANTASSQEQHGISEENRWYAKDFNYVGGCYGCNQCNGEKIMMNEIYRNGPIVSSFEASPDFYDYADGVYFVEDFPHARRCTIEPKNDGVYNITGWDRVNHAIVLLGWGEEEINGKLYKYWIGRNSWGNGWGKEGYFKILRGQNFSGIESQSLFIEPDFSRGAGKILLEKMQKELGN
row,SMILES,% Inhibition @ 10 uM [%]
1,COc1ccc(C2C(C#N)=C(N)Oc3c2c(=O)oc2ccccc32)cc1O (centres unmarked),-3.48
2,COCCNC(=O)c1ccc(Cn2c(SCc3ccc(F)cc3)nc3cccnc32)cc1,4.43
3,c1cncc(CN2CCN(Cc3ccco3)CC2)c1,-1.44
4,Cc1cc(NC(=O)C2CCCN(c3ncnc4onc(C)c34)C2)no1 (centres unmarked),-5.09
5,COc1ccc(C2C(C(=O)c3ccccc3)=C(O)C(=O)N2CCNC(C)=O)cc1 (centres unmarked),2.18
6,O=C(NC1CCOCC1)N1CCN(c2ncccn2)CC1,6.92
7,O=C(Nc1cccc2ccccc12)N1CCN(Cc2ccc3c(c2)OCO3)CC1,-3.04
8,Cc1cc(C)c(C2C(C#N)=C(N)OC3=C2C(=O)CC(C)(C)C3)c(C)c1 (centres unmarked),2.62
9,O=C(C1CCC(CNS(=O)(=O)c2ccc(Br)s2)CC1)N1CCCCCC1 (centres unmarked),-0.668
10,O=C(Cn1ncc2c3ccccc3n(Cc3ccccc3)c2c1=O)NCCc1ccccc1,-3.35
11,Cc1ccc2[nH]c(/C(C#N)=C/c3cc(Cl)cc(Cl)c3O)nc2c1,-4.03
12,N#CCCN(C1CCCCC1)S(=O)(=O)c1ccc(-c2ccc([N+](=O)[O-])cc2)cc1,-9.31
13,OCCNCc1cc(Cl)ccc1OCc1ccc(Cl)cc1Cl,-3.5
14,O=c1c2c(-c3ccccc3)csc2nc2c3ccccc3c(NCC3CCCO3)nn12 (centres unmarked),5.54
15,CCOC(=O)c1cc2c(=O)n3ccccc3nc2n(Cc2ccco2)/c1=N/C(=O)c1ccc(C)cc1,-4.67
16,O=C(NCCOc1ccccc1Cc1ccccc1)c1cccnc1,0.9
17,N=C1/C(=C\c2coc3ccccc3c2=O)C(=O)N=C2SC=NN12,-0.495
18,COc1ccc(OC)c(SC[C@H]2CCCC[C@H]2C(=O)NCC#N)c1,-1.41
19,c1csc(-c2ncc3ccccn23)c1,1.32
20,COc1ccc(S(=O)(=O)N2CCSC2c2cc(Br)ccc2OC)cc1C (centres unmarked),-1.98
21,CSc1nnc2c(n1)[nH]c1ccc(C)cc12,2.51
22,Cc1ccc(S(=O)(=O)N(CCCN(C)C)Cc2ccc3c(c2)OCO3)cc1,-3.13
23,Cc1ccc(C(=O)Nc2ccc(S(=O)(=O)N3CCCCC3)cc2)cc1Br,3.58
24,Nc1ccc(CCC(=O)N2CCCC2)cc1,-3.04
25,CC1C(=O)CCN(C)C1c1ccccc1 (centres unmarked),3.31

row,SMILES,% Inhibition @ 10 uM [%]
1,Cc1nc2c(C(=O)NCc3ccccc3Cl)cnn2c(C)c1Cc1ccc(Cl)cc1,4.47
2,CCOC(=O)C1=C(C)N=c2s/c(=C\c3c[nH]c4ccccc34)c(=O)n2C1c1ccc(N(C)C)cc1 (centres unmarked),6.39
3,O=C1C2CCN(CC2)C1Cc1ccc2ccccc2c1O (centres unmarked),-4.82
4,N#CCCN(CC(=O)O)S(=O)(=O)c1ccccc1,-6.99
5,O=C(Nc1ccccc1NC(=O)C1CC1)C1CC1,0.475
6,Cc1cccc(C(=O)Nc2ccc3nc(SCC(=O)N4CCOCC4)sc3c2)c1,4.7
7,COc1ccccc1NC(=O)Cc1ccccc1,-2.03
8,CCCC(=O)NC(c1ccc(OC)cc1)c1cc(Cl)c2cccnc2c1O (centres unmarked),-7.08
9,CCOc1ccc(CCNC(=O)CCc2c(C)nc3c(-c4ccc(F)cc4)c(C)nn3c2C)cc1,6.1
10,Cc1ccc(Nc2ncnc3ccccc23)cc1C,-2.19
11,NC(=O)c1ccc(NC(=O)c2cc(-c3ccc(Cl)cc3)nc3ccccc23)cc1,0.389
12,CCc1ccc(C(C)NC(=O)CSc2ccccc2)cc1 (centres unmarked),5.18
13,CCNS(=O)(=O)c1cnccc1N1CCN(CCO)CC1,0.245
14,CCOc1cc(/C=C2/C(=O)ON=C2C)cc(Br)c1OCc1ccc(C)cc1,2.95
15,O=C(c1nc2ncccn2n1)N(Cc1ccccc1)Cc1ccccc1,1.72
16,COc1ccc(OC)c(-c2cc(C(=O)NCCCn3ccnc3)no2)c1,-4.43
17,CC(C)C[C@@H](CS(=O)(=O)N[C@@H](CCc1ccccc1)C(=O)COc1ccccc1)NC(=O)OCc1ccccc1,0.744
18,CCCCNC(=O)c1ccc(CS(=O)(=O)Cc2cccc(C)c2)o1,2.35
19,O=c1sc2ccccc2n1Cc1ccc(Br)cc1,-0.856
20,CC(C)OCCCNC(=O)C1CCC(CNS(=O)(=O)c2ccccc2)CC1 (centres unmarked),0.718
21,c1cc[n+](Cc2nc3ccccc3s2)cc1,2.68
22,CC1=CN2C(=N)/C(=C/c3cc(C)n(-c4ccccc4Cl)c3C)C(=O)N=C2S1,2.25
23,CCCCn1/c(=N/C(=O)c2ccncc2)c(C(=O)OCC)cc2c(=O)n3ccccc3nc21,-8.38
24,O=C1N/C(=C\c2c[nH]c3ccccc23)C(=O)N1Cc1ccc(Cl)cc1,0.487
25,Cc1cc2nc(NC(=O)CC(C)C)sc2cc1C,-3.25

row,SMILES,% Inhibition @ 10 uM [%]
1,COc1ccc(-c2cc(C(=O)NCc3ccco3)c3ccccc3n2)cc1,-5.13
2,O=C(O)c1cc(-c2ccc3c(c2)OCO3)nc2ccccc12,-2.02
3,COc1ccc(NC(=O)Cn2nc(C(F)(F)F)cc2C2CC2)c(C)c1,-0.116
4,COc1ccccc1OC(C)C(=O)Nc1c(C(=O)c2ccccc2)oc2ccccc12 (centres unmarked),-2.91
5,Cc1nn(C)c2sc(C(=O)N[C@@H](C[C@H](C)c3ccccc3)C(=O)NCC#N)cc12,-1.5
6,CCN1CCN(C(=O)Cn2nc(-c3ccc(Cl)cc3)ccc2=O)CC1,6.32
7,CC1CCc2c(sc3c2CSC(C(=O)Nc2cccnc2)=C3)C1 (centres unmarked),4.79
8,CC(C)C[C@H](NC(=O)OCc1cccc([N+](=O)[O-])c1)C(=O)NCC#N,1.71
9,O=S(=O)(Nc1ccc(-c2cn3cccnc3n2)cc1)c1ccc2ccccc2c1,-5.34
10,Cc1ccc(/C=C2\C(=N)N3N=C(S(=O)(=O)CC(C)C)SC3=NC2=O)o1,-3.35
11,CC1(/C(CCc2ccccc2)=N/O)CCCCC1,-0.736
12,O=C(NC1CCCCCC1)C1c2ccccc2C(=O)N1Cc1ccc(F)cc1Cl (centres unmarked),-1.92
13,COCc1cc(-c2c(C#N)c(N)nc3c2CCCCCC3)ccc1OC,-0.425
14,Nc1ncc(Br)cc1S(=O)(=O)NC1CCN(Cc2ccccc2)CC1,3.92
15,CN(C)c1ccc(CN2CCc3c([nH]c4ccccc34)C2)cc1,-1.38
16,Cn1c2c(c(=O)[nH]c1=O)C(c1ccc(Cl)cc1)C1=C(O)c3ccccc3C1=N2 (centres unmarked),3.65
17,Nc1c(C(=O)NCC(=O)O)sc2nc3c(c(C(F)(F)F)c12)CCCCC3,47
18,O=S1(=O)C=C(SCc2ccco2)c2ccccc21,-0.105
19,Cc1ccc(Nc2nc(-c3c(C)nc4ccccn34)cs2)cc1,-4.31
20,Cc1ccc(S(=O)(=O)N(C)Cc2nc(-c3ccccc3)no2)cc1,-6.43
21,COc1ccc(Br)cc1C1=N/C(=C\c2cccc(OC)c2OC)C(=O)O1,4.22
22,O=C(NCCCc1nc2ccccc2n1CCc1ccccc1)c1ccco1,-2.99
23,O=C(CCn1c(=O)[nH]c2ccsc2c1=O)NCCc1ccccc1Cl,2.64
24,COCc1c(C)cc(C)c(/C=C(\C#N)C(N)=S)c1C,-9.12
25,Cc1ccc(-c2nc3nc(C)cc(N4CCN(Cc5ccccc5)CC4)n3n2)cc1,-3.87

row,SMILES,% Inhibition @ 10 uM [%]
1,Clc1ccc(-c2noc3ncnc(NC4CCCCCC4)c23)cc1,7.21
2,CCOc1ccccc1C(=O)Nc1ccc(NC(=O)c2ccccc2OCC)cc1,2.01
3,Cc1ccc2c(CNCCc3ccc(Cl)cc3)c(C(=O)O)n(Cc3ccc(F)cc3Cl)c2c1,2.96
4,O=C(CCc1ccccc1)n1nc(-c2ccco2)nc1NCc1cccs1,-5.08
5,C=CCOc1ccc(Oc2nc(N)nc(NCC)n2)nn1,0.401
6,CS(=O)(=O)C1=NSC2=NC(=O)/C(=C\c3ccc(-c4cccc(C(=O)O)c4)o3)C(=N)N21,0.163
7,CCOC(=O)c1ccc2ncc(-c3ccccc3)nc2c1,-0.256
8,Cc1ccc(S(=O)(=O)N(C)c2ccc(C(=O)Nc3ccccc3C(=O)N3CCCC3)cc2)cc1,2.53
9,CC(=O)NCCc1c[nH]c2ccc(OCC(O)CNC(C)C)cc12 (centres unmarked),-1.4
10,CC(C)(C)OC(=O)N[C@H](C(=O)NCC#N)C1CCCC1,0.174
11,COC(=O)C1=C(C)NC(=O)CC1c1ccc(Cl)cc1Cl (centres unmarked),1.84
12,CCCCCn1c(SCC(=O)Nc2ccccc2)nc2c1c(=O)[nH]c(=O)n2C,-2.24
13,CCSc1nc2ccccc2n1Cc1nc(N)nc(N(C)C)n1,4.58
14,O=C(Nc1ccccc1C(F)(F)F)c1ccc(Cl)s1,-0.687
15,COc1ccc(C(O)Cc2cccnc2)cc1 (centres unmarked),-2.42
16,Cc1nc2c3cccnc3nn2c(C)c1CCC(=O)NCCc1c[nH]c2ccccc12,-0.0115
17,CCCCOc1ccc(C2CC(=O)Nc3c2c(=O)nc(SC)n3C)cc1 (centres unmarked),3.84
18,Cc1oc2c(c1C(=O)N1CCc3ccccc3C1)C(=O)c1ccccc1C2=O,1.72
19,CC(C)C[C@H](NC(=O)OCc1ccccc1)C(=O)N[C@@H](CCc1ccccc1)C(=O)CNCc1ccccc1,-3.97
20,COc1ccc(Cc2c(C)nc3ccc(OCCC(C)C)cc3c2S)cc1,-3.44
21,C1CCCC(NCCCN2CCOCC2)CC1,-2.95
22,O=C(NCc1ccc2c(c1)OCO2)c1cc2c(O)nc3ccccc3c2s1,-0.499
23,Cn1c(=O)c2c(nc(NCC(O)c3ccccc3)n2C)n(C)c1=O (centres unmarked),-9.66
